Measurements published in US20100204156A1, “USE OF THYMOPENTIN AS A THERAPEUTIC AGENT” (priority 2007, published 2010).
Residues, ends and D or L forms follow the SMILES beside them.

Test system: RAW 264.7 (Mouse leukaemic monocyte macrophage cell line) cells
Assay: Phagocytosis assay (Fluorescein-labeled Escherichia coli, flow cytometry)
Format: cell-based
Conditions: RAW 264.7 cells, test peptide 10 micrograms per ml

## CC(C)[C@H](NC(=O)[C@H](CC(=O)O)NC(=O)[C@H](CCCCN)NC(=O)[C@@H](N)CCCN=C(N)N)C(=O)N[C@@H](Cc1ccc(O)cc1)C(=O)O [Thymopentin, Arg-Lys-Asp-Val-Tyr-OH] (H-RKDVY-OH)
  % of control phagocytosis: 102.9%
